Test results reported in PubChem BioAssay AID493208 (National Center for Advancing Translational Sciences (NCATS), 2011).
Out of some 44,000 compounds screened, about 340 (0.77%) were called active. Roughly 5% stayed inconclusive and do not appear here. The call rests on the fitted dose curve; in most records, active means well fitted inhibition curve with a large enough effect; inconclusive means small, poorly fitted or top-dose-only effect; inactive means flat fitted curve, though single readings scatter. Some of the results follow.

test: Acumen qHTS Assay for Inhibitors of the mTORC1 Signaling Pathway in MEF (Tsc2-/-, p53-/-) Cells: Sytravon; conditions: phospho-rpS6 immunofluorescence/PI, 24 h; series mostly up to 38.3 µM; activity change, negative = inhibition: at the top concentration;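 further: plate controls were DMSO for no effect and rapamycin for full effect; nearly all actives have a fitted effect of over 50% in size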
In short: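 Compounds act on Tsc2-/-, p53-/- fibroblasts carrying an empty vector for 24 h before fixation and dual staining for phospho-S6 and DNA (propidium iodide). Values are percentages of cells above a rapamycin-defined pS6/PI threshold.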

Activity change, negative = inhibition, inactive:
CCCNc1ncnc2onc(C)c12 -3.04%
Cc1ccc(C(=O)n2nc(C)c(S(=O)(=O)N3CCOCC3)c2C)cc1 0.141%
Cc1ccc(CSc2nc(-c3cccs3)ccc2C#N)cc1 5.37%
COc1ccc(-n2nc(C(=O)Nc3ccccc3OC)c3c4ccccc4n(C)c3c2=O)cc1Cl -6.16%
COc1cccc(-c2nn(C)c3sc(C(=O)NCCc4ccc(Cl)cc4)cc23)c1 -3.74%
Cc1cc(S(=O)(=O)Nc2ccc(-c3ccc(N4CCCCC4)nn3)cc2)c(C)cc1Cl -19.6%
Cc1nnc(SCc2ccc(Cl)cc2)c2cc3occc3n12 -3.37%
Cc1cccc(N2CCN(c3cc(C)nc4c(-c5ccc(Cl)cc5)c(C)nn34)CC2C)c1 (stereo not given) -6.5%
CCOc1ccc(NC(=O)NCCCN2CCN(c3ccc(F)cc3)CC2)cc1 -18.4%
COC(=O)c1nc2n(n1)C(c1cccc(Cl)c1)C(C(=O)Nc1ccccc1OC)=C(C)N2 (stereo not given) 6.02%
Cc1cccc(C)c1NC(=O)C(NS(=O)(=O)c1ccc2c(c1)CCC(=O)N2)c1ccccc1 (stereo not given) -4.86%
Cc1c2cnn(-c3ccccc3)c(=O)c2c(C)n1CCCC(=O)Nc1cc(F)ccc1F -1.91%
CCN(c1cccc(C)c1)S(=O)(=O)c1nnc(NC(=O)C2CCCCC2)s1 6.87%
O=C(CSC1=Nc2ccccc2C2=NC(CC(=O)NC3CCCCC3)C(=O)N12)Nc1ccc(F)cc1 (stereo not given) -3.31%
O=C(CSc1nc2ccccc2nc1Cc1ccc(Cl)cc1)N1CCc2ccccc21 0.256%
CCc1ccc(CNC(=O)CN2C(=O)c3cccnc3Oc3ccc(Cl)cc32)cc1 3.15%
Cc1ccc(-c2nc(C)c(CCNC(=O)c3ccco3)s2)cc1 0.362%
COc1ccc(N2CCN(S(=O)(=O)c3ccc4oc(=O)c5ncn(C)c5c4c3)CC2)cc1 0.858%
CCOc1ccc(NC(=O)CSc2ncc3c(n2)-c2ccc(Cl)cc2N(Cc2ccccc2)S3(=O)=O)cc1 -4.26%
COc1ccc(-c2nc3sc(CCNC(=O)c4cc(OC)c(OC)c(OC)c4)c(C)n3n2)cc1 -2.79%
COc1ccc(C)cc1NC(=O)c1oc2ccc(S(=O)(=O)N3CCCCC3)cc2c1C 2.89%
Cc1ccc(C)c(N2CCN(S(=O)(=O)c3cc(Br)cc4c3N(C(=O)C3CC3)CC4)CC2)c1 0%
COc1cc(C(=O)NCCCc2nc3ccccc3n2CC(C)C)cc(OC)c1OC -7.07%
O=C(C1CCN(S(=O)(=O)c2ccc(Br)s2)CC1)N1CCN(c2cccc(Cl)c2)CC1 0.38%
Cc1ccc(Sc2c(C)nn(C(=O)COc3ccccc3Br)c2C)cc1 -2.43%
CCOC(=O)c1ccc(NC(=O)CCn2c(=O)c3cccn3c3ccccc32)cc1 0%
CCOc1ccc(CCNC(=O)c2sc3nc4n(c(=O)c3c2C)CCCC4)cc1OCC -2.42%
Cc1ccc2[nH]c(CSc3nnc(NC(=O)COc4ccccc4)s3)cc(=O)c2c1 -17.7%
CCOC(=O)c1sc2ncn(CC(=O)Nc3ccc(N(C)C)cc3)c(=O)c2c1C -6.25%
O=C(Nc1nc2ccc(S(=O)(=O)N3CCCC3)cc2s1)c1cccc(F)c1 2.81%
CCS(=O)(=O)N1CCc2cc(C(=O)Nc3ccc(OC)c(Cl)c3)ccc21 -5.22%
CCCCn1cc(S(=O)(=O)c2ccc(C)c(C)c2)c(=O)c2cc(F)c(N3CCCC(C)C3)cc21 (stereo not given) 4.16%
COc1ccc(OC)c(CNC(=O)c2nn(-c3ccc(OC)c(Cl)c3)c(=O)c3c2c2ccccc2n3C)c1 -6.62%
CCOc1ccc2nc(N3CCCC(C(=O)Nc4c(C)cccc4C)C3)sc2c1 (stereo not given) -0.0902%
CCOc1ccc(N(C(=O)CC(C)C)S(=O)(=O)c2ccc3c(c2)oc(=O)n3C)cc1 -6.14%
Cc1ccc(-c2nc3scc(CCNC(=O)Cc4ccc(Cl)cc4)n3n2)cc1 5.44%
COc1ccc(CCNC(=O)CCCn2c(=O)c3ccccc3n(Cc3cccc(Cl)c3)c2=O)cc1OC -0.054%
CCC(=O)Nc1c(C(=O)N2CCN(c3ccc(F)cc3)CC2)oc2ccccc12 -1.02%
COc1ccc(CCNS(=O)(=O)c2ccc3c(c2)CC(C)N3C(=O)C2CCC2)cc1OC (stereo not given) -6.01%
CCOc1ccc(CC(=O)NCCc2csc(-c3ccc(C)cc3)n2)cc1 -19.1%
COc1ccc(S(=O)(=O)n2nc(C)c(S(=O)(=O)N3CCC(C)CC3)c2C)cc1C 7.62%
CCN(CC)c1ccc(NS(=O)(=O)c2ccc(-c3cnc(C4CC4)o3)cc2)c(C)c1 0%
O=C1NCCN(Cc2ccc(F)cc2)C1=O 0%
CCCn1c(SCc2nc(-c3ccc(OC)cc3OC)no2)nnc1-c1ccc(Cl)cc1 -5.95%
Cc1cccc(C)c1NC(=O)CSc1nc(-c2ccccc2)nc2c1Cc1c(CO)cnc(C)c1O2 -8.12%
CCC1CN(C(=O)N2CCC(C(=O)NCCc3ccc(Cl)cc3)CC2)c2ccccc2O1 (stereo not given) 4.36%
Cc1ccc(NC(=O)Cn2cc(C(=O)C3CC3)c3ccccc32)cc1 1.18%
COc1ccc(NC(=O)Cn2nnc(C(=O)Nc3ccc(F)c(Cl)c3)c2N)cc1OC -1.55%
COc1ccc(-c2noc(CN(C(=O)COc3cc(C)c(Br)c(C)c3)C(C)C)n2)cc1 -6.22%
Cn1c(SCc2ccc(F)cc2)nc2ccc(C(=O)NCc3ccc(Cl)cc3)cc21 -2.05%
Cn1c(=O)c(=O)n(C)c2cc(N3CCOCC3)c(NS(=O)(=O)c3ccc(Cl)cc3)cc21 0.0108%
Cc1nn(Cc2ccc(F)cc2)c(C)c1NC(=O)c1cc(CC(C)C)on1 -0.273%
CCc1ccc(S(=O)(=O)c2cn(CC(=O)Nc3ccc(C)cc3)c3ccccc3c2=O)cc1 -4.92%
CCOC(=O)c1[nH]c2c(c1Cc1ccccc1)C(=O)CC(c1ccc(Cl)cc1)C2 (stereo not given) 3.96%
CCOC(=O)c1ccc(NC(=O)c2c(NC(C)=O)sc3c2CCC(C)C3)cc1 (stereo not given) -28.5%
CCOc1ccc(CCNC(=O)c2ccc3c(Cl)c4c(nc3c2)CCCC4)cc1 1.68%
O=S(=O)(NCCc1nnc2ccc(SCc3ccc(Cl)cc3Cl)nn12)c1ccccc1 -15.6%
Cc1ccc(CNC(=O)c2ccc3nc(N4CCCCC4)sc3c2)cc1 -0.208%
COc1cccc(C(c2sc3nc(-c4ccco4)nn3c2O)N2CCC(O)CC2)c1 (stereo not given) -2.14%
CCOc1ccccc1NC(=O)c1sc2nc3n(c(=O)c2c1C)CCCCC3 1.62%
